In article PMC6522503 one finds binding data, which are given here for 9 molecules.

Chains of the proteins cited; added tags and fusions are not shown. Lines headed by an entry give the natural chain unless they say otherwise; changes in a name come on top. A line that says so, or that is headed by a name, gives the form on record, which may keep a tag or linker. Residues count along the entry.
UniProt P11802: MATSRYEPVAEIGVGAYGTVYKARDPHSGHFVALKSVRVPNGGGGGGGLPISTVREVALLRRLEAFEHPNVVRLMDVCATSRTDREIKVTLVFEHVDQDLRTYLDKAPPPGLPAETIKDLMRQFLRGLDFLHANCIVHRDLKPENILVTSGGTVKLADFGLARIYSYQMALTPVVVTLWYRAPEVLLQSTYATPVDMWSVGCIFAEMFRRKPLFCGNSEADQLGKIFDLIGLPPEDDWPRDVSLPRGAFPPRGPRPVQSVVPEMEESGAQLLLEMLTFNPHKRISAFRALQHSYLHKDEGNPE
UniProt Q61846: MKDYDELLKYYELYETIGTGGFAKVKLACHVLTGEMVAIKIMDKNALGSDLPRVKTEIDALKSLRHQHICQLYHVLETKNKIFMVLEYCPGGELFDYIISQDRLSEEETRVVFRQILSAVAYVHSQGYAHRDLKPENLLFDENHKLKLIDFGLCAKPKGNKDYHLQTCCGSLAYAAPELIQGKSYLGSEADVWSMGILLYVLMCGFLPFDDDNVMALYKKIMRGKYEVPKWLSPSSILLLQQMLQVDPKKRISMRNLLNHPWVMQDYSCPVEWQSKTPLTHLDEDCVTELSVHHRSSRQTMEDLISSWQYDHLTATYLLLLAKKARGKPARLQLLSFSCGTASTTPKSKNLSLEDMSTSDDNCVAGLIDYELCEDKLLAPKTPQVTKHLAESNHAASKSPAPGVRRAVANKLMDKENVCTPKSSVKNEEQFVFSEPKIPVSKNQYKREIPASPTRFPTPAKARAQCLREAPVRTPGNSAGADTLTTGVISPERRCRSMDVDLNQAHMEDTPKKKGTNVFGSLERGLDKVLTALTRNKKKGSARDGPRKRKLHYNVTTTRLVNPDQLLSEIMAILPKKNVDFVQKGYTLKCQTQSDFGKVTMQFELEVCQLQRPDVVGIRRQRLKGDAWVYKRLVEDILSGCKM
GST-tagged recombinant MCAT (MPK38 amino acids 7–269): residues 7-269 of Q61846
GST-tagged recombinant MPKC (MPK38 amino acids 270–643): residues 270-643 of Q61846
UniProt P38936: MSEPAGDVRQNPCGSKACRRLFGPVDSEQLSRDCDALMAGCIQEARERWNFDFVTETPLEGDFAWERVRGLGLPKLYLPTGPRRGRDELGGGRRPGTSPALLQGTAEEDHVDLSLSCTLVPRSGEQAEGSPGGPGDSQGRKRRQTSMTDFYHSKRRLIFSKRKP
UniProt P37231: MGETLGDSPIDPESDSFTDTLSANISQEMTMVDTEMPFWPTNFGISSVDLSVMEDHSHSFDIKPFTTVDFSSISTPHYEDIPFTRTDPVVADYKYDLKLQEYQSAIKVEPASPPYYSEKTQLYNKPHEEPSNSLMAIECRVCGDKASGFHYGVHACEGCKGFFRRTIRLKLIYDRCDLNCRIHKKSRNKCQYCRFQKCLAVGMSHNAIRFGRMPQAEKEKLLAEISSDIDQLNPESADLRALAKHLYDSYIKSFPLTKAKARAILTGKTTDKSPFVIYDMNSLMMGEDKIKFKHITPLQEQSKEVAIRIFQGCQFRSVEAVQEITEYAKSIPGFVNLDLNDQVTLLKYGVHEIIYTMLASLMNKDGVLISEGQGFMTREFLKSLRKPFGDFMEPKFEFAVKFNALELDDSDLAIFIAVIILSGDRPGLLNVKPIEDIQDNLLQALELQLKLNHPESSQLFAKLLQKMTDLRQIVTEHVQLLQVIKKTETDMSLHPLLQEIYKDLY
UniProt Q14680: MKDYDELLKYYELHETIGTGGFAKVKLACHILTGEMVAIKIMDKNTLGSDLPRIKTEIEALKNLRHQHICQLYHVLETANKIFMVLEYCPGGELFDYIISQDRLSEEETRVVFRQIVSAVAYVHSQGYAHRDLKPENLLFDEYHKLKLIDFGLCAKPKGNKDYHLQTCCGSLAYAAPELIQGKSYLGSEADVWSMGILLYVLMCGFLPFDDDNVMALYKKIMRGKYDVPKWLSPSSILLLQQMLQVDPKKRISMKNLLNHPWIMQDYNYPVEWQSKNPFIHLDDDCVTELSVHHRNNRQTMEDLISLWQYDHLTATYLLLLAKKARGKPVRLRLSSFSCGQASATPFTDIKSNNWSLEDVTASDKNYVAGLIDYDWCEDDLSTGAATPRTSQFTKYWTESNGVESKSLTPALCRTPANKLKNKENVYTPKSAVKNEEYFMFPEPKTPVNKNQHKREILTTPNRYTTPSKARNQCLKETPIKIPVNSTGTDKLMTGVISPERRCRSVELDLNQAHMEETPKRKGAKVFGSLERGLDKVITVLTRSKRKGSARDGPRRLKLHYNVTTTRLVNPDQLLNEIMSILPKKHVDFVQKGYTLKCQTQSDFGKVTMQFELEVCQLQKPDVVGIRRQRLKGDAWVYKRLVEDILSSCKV
UniProt P37238: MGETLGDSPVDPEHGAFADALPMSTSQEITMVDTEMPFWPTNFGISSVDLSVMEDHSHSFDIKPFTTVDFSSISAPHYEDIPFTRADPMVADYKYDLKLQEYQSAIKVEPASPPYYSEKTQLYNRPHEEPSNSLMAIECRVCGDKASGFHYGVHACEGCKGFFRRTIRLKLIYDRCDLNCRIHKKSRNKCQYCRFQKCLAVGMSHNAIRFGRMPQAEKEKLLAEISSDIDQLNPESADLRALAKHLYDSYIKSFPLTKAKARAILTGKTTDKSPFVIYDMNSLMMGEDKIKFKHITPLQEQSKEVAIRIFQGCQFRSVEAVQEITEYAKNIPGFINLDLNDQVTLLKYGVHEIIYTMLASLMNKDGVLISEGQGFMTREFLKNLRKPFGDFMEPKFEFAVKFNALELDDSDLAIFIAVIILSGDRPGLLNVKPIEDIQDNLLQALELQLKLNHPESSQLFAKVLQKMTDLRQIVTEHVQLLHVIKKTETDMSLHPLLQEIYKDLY
UniProt Q00987: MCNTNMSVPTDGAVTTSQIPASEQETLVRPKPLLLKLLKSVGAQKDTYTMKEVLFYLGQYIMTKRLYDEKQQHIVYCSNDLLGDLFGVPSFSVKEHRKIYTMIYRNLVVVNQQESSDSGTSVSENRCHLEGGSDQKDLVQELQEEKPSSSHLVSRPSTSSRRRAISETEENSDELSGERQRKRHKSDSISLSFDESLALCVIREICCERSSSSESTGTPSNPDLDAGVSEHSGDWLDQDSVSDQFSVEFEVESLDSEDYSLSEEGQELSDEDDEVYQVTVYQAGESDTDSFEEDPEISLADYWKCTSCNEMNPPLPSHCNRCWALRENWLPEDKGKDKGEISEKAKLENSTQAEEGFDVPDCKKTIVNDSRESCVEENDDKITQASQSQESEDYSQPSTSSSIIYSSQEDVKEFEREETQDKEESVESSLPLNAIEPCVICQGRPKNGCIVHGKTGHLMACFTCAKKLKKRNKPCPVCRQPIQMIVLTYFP

For assay [1], the target named is HA-CDK4 (UniProt P11802). Nature of the assay: co-IP; HEK293 cells transiently transfected (48 h), with or without WT or K40R MPK38; lysates immunoprecipitated with anti-HA antibody, immunoblot with anti-FLAG antibody. For orientation: Immunoblotting shows a protein as a band on a membrane.
The target of assay [2] is glutathione S-transferase (GST)-tagged MPK38 (wild type) (mouse) (UniProt Q61846). The experiment in a line: pull-down; HEK293 cells transiently transfected with MPK38 or p21 deletion constructs; complex measured by immunoblot with anti-FLAG or anti-p21 antibody; capture step not told in the legend.
The target of assay [3] is p21, endogenous in HEK293 cells (human (endogenous in HEK293)) (UniProt P38936). Nature of the assay: co-IP; endogenous p21–Mdm2 complex in HEK293 cells transfected with MPK38 (WT or K40R); immunoblot with anti-Mdm2 antibody.
For assay [4], the target named is peroxisome proliferator-activated receptor γ (PPARγ), transfected (UniProt P37231). Nature of the assay: co-IP; exogenous p21 and PPARγ in MEF cells expressing MPK38 (+/+) or not (−/−); complex in the nucleus.
The target is the same in assay [5]. Nature of the assay: co-IP; HEK293 cells transiently transfected; nuclear fraction; p21-PPARγ complex assessed by immunoblot with anti-FLAG antibody.
For assay [6] the target is unchanged. Nature of the assay: co-IP; HEK293 cells transiently transfected; cytosolic fraction; p21-PPARγ complex assessed by immunoblot with anti-FLAG antibody.
The target in assay [7] is glutathione S-transferase (GST)-tagged MPK38 (wild type) (mouse) (UniProt Q61846). Nature of the assay: pull-down; HEK293 cells co-transfected; GST-tagged MPK38 purified on glutathione-sepharose beads (GST purification); immunoblot with anti-FLAG antibody.
The target in assay [8] is MCAT, N-terminal kinase domain of MPK38 (amino acids 7–269) (mouse) (UniProt Q61846). Nature of the assay: pull-down; HEK293 cells transiently transfected with MPK38 or p21 deletion constructs; complex measured by immunoblot with anti-FLAG or anti-p21 antibody; capture step not told in the legend.
The target in assay [9] is MPKC, carboxy-terminal domain of MPK38 (amino acids 270–643) (mouse) (UniProt Q61846). The description is as above.
In assay [10] the target is GST-tagged recombinant MCAT (MPK38 amino acids 7–269) (mouse) (UniProt Q61846). Nature of the assay: native gel or EMSA; native PAGE (8%); recombinant GST-tagged MPK38 (WT, MCAT or MPKC) incubated with in vitro-translated 35S-labeled p21 at room temperature for 1 h; only the target purified. For orientation: In EMSA bound probe runs differently from free probe, usually more slowly.

For assay [11], the target named is GST-tagged recombinant MPK38 (WT) (mouse) (UniProt Q61846). The description is as above.
The target in assay [12] is GST-tagged recombinant MPKC (MPK38 amino acids 270–643) (mouse) (UniProt Q61846). Described as above.
Assay [13] has as its target MPK38/MELK, endogenous in HEK293 cells (human (endogenous in HEK293)) (UniProt Q14680). Nature of the assay: co-IP; endogenous proteins; lysates of HEK293, NIH 3T3 and 3T3-L1 cells immunoprecipitated with anti-MPK38 antibody or rabbit pre-immune serum, immunoblot with anti-p21; HEK293 also with or without H2O2, TNF-α, thapsigargin, ionomycin, TGF-β1, 5-fluorouracil, doxorubicin.

In assay [14] the target is PPARγ, endogenous in MEF cells (mouse (endogenous in MEF)) (UniProt P37238). Nature of the assay: co-IP; endogenous p21 and PPARγ in MEF cells expressing MPK38 (+/+) or not (−/−); complex in the nucleus.
In assay [15] the target is MPK38, endogenous in NIH 3T3 and 3T3-L1 cells (mouse (endogenous in NIH 3T3 and 3T3-L1)) (UniProt Q61846). Nature of the assay: co-IP; endogenous proteins; lysates of HEK293, NIH 3T3 and 3T3-L1 cells immunoprecipitated with anti-MPK38 antibody or rabbit pre-immune serum, immunoblot with anti-p21; HEK293 also with or without H2O2, TNF-α, thapsigargin, ionomycin, TGF-β1, 5-fluorouracil, doxorubicin.

Results are given in words; binding and its absence hold for the method and conditions named. For part of these data: In cells and extracts the contact can be indirect. Some binding calls cover weakened binding; strength is not graded here.

Turning to “FLAG-tagged p21 T55A (from UniProt P38936 1-164)”, the binding entry in assay [1] is recorded as “binds”.

On to “p21 deletion construct 141–164 (amino acids 141–164) (from UniProt P38936 141-164) (domain or fragment)”, for which the binding entry in assay [2] is recorded as “no binding”.

As to “mouse double minute 2 (MDM2), endogenous in HEK293 cells (from UniProt Q00987 1-491) (enzyme)”, in assay [3], the binding entry is “binds”.

As to “FLAG-tagged p21 (wild type) (from UniProt P38936 1-164)”, the binding entry is recorded as “binds” in assay [4]; “binds” in [5]; “no binding (condition: in the cytosolic fraction)” in assay [6]; “binds” in assay [7]; “no binding” in assay [8]; “binds” in assay [9]. In addition, the binding entry in [2] is listed as “binds”.

Regarding “in vitro-translated 35S-labeled wild-type p21 (from UniProt P38936 1-164)”, the figures for the binding entry in [10], in [11] and in assay [12] were “no binding”, “binds” and “binds”, respectively.

Take “p21 deletion construct 71–164 (amino acids 71–164) (from UniProt P38936 71-164) (domain or fragment)”: the binding result in assay [2] is on record as “no binding”.

With “p21, endogenous in HEK293 cells (from UniProt P38936 1-164)”, the binding result in assay [13] is “binds”.

Take “p21 deletion construct 46–71 (amino acids 46–71) (from UniProt P38936 46-71) (domain or fragment)”: the binding result in [2] is “binds”.

B1: p21, endogenous in mouse cells (NIH 3T3, 3T3-L1, MEF) (protein, UniProt P39689 1-159)
chain: MSNPGDVRPVPHRSKVCRCLFGPVDSEQLRRDCDALMAGCLQEARERWNFDFVTETPLEGNFVWERVRSLGLPKVYLSPGSRSRDDLGGDKRPSTSSALLQGPAPEDHVALSLSCTLVSERPEDSPGGPGTSQGRKRRQTSLTDFYHSKRRLVFCKRKP
As for B1, the binding result in assay [14] and in assay [15] was “binds” in each case.
